# Source: paper PMC4336329 (PLoS ONE, 2015)
# Among all 310,000 compounds or so, about 2,200 (0.71%) showed an effect of 50% or more. Effects have a minus sign here. The list shows a part of the results.
# Molecular target: human ether-à-go-go-related gene (hERG) potassium channel (human, UniProt Q12809)
# Assay: primary screen, population patch clamp on CHO cells stably expressing hERG
# Sequence of human ether-à-go-go-related gene (hERG) potassium channel (Q12809 whole entry, looked up): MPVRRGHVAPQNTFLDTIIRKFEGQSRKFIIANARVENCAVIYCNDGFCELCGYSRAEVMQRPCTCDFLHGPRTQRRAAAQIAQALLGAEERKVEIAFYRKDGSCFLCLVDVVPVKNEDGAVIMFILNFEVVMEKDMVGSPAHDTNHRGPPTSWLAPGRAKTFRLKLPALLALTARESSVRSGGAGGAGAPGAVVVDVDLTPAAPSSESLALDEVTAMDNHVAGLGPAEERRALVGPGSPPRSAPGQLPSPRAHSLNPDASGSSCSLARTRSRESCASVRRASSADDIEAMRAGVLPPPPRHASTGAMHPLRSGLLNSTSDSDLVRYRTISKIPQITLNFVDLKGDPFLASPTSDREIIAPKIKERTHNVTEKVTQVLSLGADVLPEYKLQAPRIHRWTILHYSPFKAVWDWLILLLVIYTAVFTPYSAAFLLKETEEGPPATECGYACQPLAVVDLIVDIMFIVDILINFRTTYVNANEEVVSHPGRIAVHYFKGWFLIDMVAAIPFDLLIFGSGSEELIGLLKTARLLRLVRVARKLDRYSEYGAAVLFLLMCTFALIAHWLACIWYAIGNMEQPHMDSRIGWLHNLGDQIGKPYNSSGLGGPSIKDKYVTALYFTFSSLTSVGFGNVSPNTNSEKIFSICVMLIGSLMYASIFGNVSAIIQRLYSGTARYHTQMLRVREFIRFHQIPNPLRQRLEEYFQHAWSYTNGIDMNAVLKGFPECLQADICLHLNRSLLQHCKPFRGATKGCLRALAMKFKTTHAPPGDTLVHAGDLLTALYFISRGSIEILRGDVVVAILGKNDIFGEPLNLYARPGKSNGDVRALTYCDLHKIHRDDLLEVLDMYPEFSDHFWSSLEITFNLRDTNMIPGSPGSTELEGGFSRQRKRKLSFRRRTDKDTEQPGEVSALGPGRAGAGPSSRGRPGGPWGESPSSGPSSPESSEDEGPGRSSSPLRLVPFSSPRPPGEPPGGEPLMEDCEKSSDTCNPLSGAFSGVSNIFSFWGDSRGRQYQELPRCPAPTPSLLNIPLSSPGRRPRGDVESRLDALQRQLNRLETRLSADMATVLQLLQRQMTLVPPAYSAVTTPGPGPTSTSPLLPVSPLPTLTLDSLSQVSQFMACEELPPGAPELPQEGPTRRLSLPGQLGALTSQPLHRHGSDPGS
row,SMILES,"hERG current change (%, negative = inhibition) at 1uM"
1,Cc1ccc(S(=O)(=O)Nc2cnc3ccccc3c2)cc1,9.18%
2,CCOC(=O)C1=C(C)NC2=C(C(=O)CCC2)C1c1cccnc1 (stereo not shown),6.56%
3,COc1ccccc1C(=O)NNC(=O)Cc1ccccc1,11.7%
4,S=C1N(c2ccccc2)CN(C2CCCCC2)CN1c1ccccc1,8.09%
5,COc1ccc(-c2ccc3nnc(SCC(=O)NCC4CCCO4)n3n2)cc1 (stereo not shown),4.44%
6,N#CC1(NC(=O)CN2c3cccc4cccc(c34)S2(=O)=O)CCCCC1,16.1%
7,COc1ccc2[nH]c(=O)c(CN(CCO)S(=O)(=O)c3ccc(C)cc3)cc2c1,-1.16%
8,CN1/C(=C\C(=O)c2cccc([N+](=O)[O-])c2)Sc2ccccc21,12.3%
9,O=C(Cc1ccc(F)cc1)NCCc1cnc[nH]1,16.9%
10,COC(=O)CSc1nnnn1-c1cccc2ccccc12,-2.31%
11,COc1ccc(CN=C2NN=C(c3ccccc3)CS2)cc1,11.9%
12,O=C1C2C3C=CC(C3=C(c3ccccc3)c3ccccc3)C2C(=O)N1CCO (stereo not shown),-17.4%
13,O=C(CN1CCN(c2ccccc2F)CC1)NC(=O)NCc1ccccc1,2.96%
14,CC(=O)C(C)Oc1ccc2c3c(c(=O)oc2c1)CCCC3 (stereo not shown),-0.665%
15,Cc1cccc(S(=O)(=O)c2c(N)n(Cc3ccco3)c3nc4ccccc4nc23)c1,11.8%
16,c1nc2nc3c(c(N4CCNCC4)n2n1)CCCC3,8.16%
17,CN1C(=O)/C(=C/c2ccccc2OCc2cccc(F)c2)NC1=S,7.4%
18,CCn1cc(Cl)c(C(=O)Nc2nc3ccccc3n2CCN2CCCCC2)n1,-51.8%
19,C[C@@H]1[C@H]2[C@@H](O[C@@H]3O[C@H](CO)[C@@H](O)[C@H](O)[C@H]3O)OC=C(C(=O)O)[C@H]2C[C@@H]1O,15.4%
20,Cc1nn(CCO)c2ncc(C(=O)c3cc(Cl)ccc3O)cc12,12.4%
21,O=C1CC(C(=O)Nc2ccccc2)S/C(=N\NC(=O)c2ccccc2Cl)N1 (stereo not shown),11.1%
22,CC1CCCN(C(=O)CCCn2c(=S)[nH]c3ccccc3c2=O)C1 (stereo not shown),7.88%

row,SMILES,"hERG current change (%, negative = inhibition) at 1uM"
1,CCn1cc(C(=O)NC2CCCc3c2cnn3-c2cccc(C)c2C)cn1 (stereo not shown),15.8%
2,COC(=O)c1ccc(N2CCN(C)CC2)c(NC(=O)c2cccnc2)c1,-1.74%
3,O=C(c1ccc(Cl)cc1)c1ccc(Oc2cc(NN3CCCCC3)c([N+](=O)[O-])cc2[N+](=O)[O-])cc1,4.18%
4,O=C(CCC(=O)Nc1nnc(C2CCCCC2)s1)Nc1ccccc1,19.7%
5,O=C(Cc1cccs1)N1CCC(c2nc3c(nnn3Cc3ccccc3)c(=O)[nH]2)CC1,0.845%
6,O=C(Cc1cc(=O)[nH]c(=O)[nH]1)NCC1CCCO1 (stereo not shown),6.43%
7,CCOc1cccc(C(=O)Nc2ccc(NC(=O)c3ccccc3)c(C)c2)c1,8.16%
8,COc1ccc2cc3c(N)nn(C(=O)c4ccc(F)cc4)c3nc2c1,16%
9,Cc1cc(C)n2nc(SCCCC(=O)c3ccc(F)cc3)nc2n1,-0.906%
10,CCOc1ccc(C2NC(=O)c3sc(=S)n(-c4ccccc4)c3N2)cc1 (stereo not shown),-0.189%
11,C=CCn1c(O)c(/C=N/NC(=O)c2ccncc2)c(=O)[nH]c1=O,17%
12,O=C(NC1CCC(O)CC1)c1cccc2cccnc12 (stereo not shown),11%
13,O=C(NCCCCCCNC(=O)OCCO)OCCO,17.6%
14,CCN1CCN(Cc2ccc(NC(=O)c3ccc(C)c(NC(=O)C(=O)c4c[nH]c5ccccc45)c3)cc2C(F)(F)F)CC1,9.58%
15,COc1ccc(NC(=O)COC(=O)CCCC2=NS(=O)(=O)c3ccccc3N2)cc1,19.9%
16,COc1c2ccoc2c(OC)c2oc(=O)ccc12,-1.72%
17,CCN1C(=O)/C(=C/c2cccs2)S/C1=N\S(=O)(=O)c1ccc(C)cc1,14.7%
18,CC(C)(C)[C@H]1C=C(C(=O)NCc2nc3ccccc3[nH]2)O[C@@H](OCCCCO)C1,12.3%
19,COc1ccc(OC)c(C(C(=O)NC2CCCCC2)N(C(=O)c2snc(C(N)=O)c2N)c2ccccc2OC)c1 (stereo not shown),19.2%
20,Fc1ccc(-c2noc(C3CCN(Cc4cccnc4)CC3)n2)cc1,-9.35%
21,N#Cc1ccccc1COc1ccc(/C=C/C(=O)O)cc1,9.11%
